Assay results: paper PMC6919601, “Identification of Plasmodium dipeptidyl aminopeptidase allosteric inhibitors by high throughput screening” (PLoS ONE, 2019)
The whole screen tested about 110,000 compounds, of which about 230 (0.21%) showed an effect of 50% or more. The list shows a part of the results.

Target: DPAP1 (Plasmodium falciparum, UniProt Q8IIJ9)
Assay: primary screen, percent inhibition; read by cleavage of a fluorogenic dipeptide substrate; higher = more effect of the substance
Parameters: species or system P. falciparum D10 trophozoite lysates; single well
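Also: 30 min substrate incubation versus DMSO and 10 µM JCP410 controls.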

Sequence of DPAP1 (Q8IIJ9 whole entry, looked up): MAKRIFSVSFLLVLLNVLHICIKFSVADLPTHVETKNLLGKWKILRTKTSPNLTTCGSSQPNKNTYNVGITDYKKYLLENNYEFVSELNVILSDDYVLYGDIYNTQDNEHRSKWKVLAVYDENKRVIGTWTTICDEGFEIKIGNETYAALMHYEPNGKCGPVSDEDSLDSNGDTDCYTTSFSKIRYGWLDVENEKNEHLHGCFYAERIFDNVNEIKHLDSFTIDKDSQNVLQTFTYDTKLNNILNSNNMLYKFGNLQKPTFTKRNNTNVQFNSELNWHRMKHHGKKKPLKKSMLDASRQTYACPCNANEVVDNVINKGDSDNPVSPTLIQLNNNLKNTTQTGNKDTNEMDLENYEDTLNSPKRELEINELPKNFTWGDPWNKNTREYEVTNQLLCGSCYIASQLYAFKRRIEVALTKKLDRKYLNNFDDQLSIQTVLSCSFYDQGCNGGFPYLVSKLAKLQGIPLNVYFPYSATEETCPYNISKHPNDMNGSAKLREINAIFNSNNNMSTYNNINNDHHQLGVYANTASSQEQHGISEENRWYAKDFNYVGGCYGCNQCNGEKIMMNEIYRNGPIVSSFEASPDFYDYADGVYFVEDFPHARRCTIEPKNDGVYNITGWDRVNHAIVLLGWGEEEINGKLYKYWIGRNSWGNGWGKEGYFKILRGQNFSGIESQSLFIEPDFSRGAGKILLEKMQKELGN

In order of rising “% Inhibition @ 10 uM” value:
1. Cc1cccc(-c2nc(CSc3nnc(C)n4c3cc3occc34)c(C)o2)c1  -9.18%
2. O=C(Nc1ccc(S(=O)(=O)Nc2ccc(Cl)c(Cl)c2)cc1)c1ccc2c(c1)OCO2  -7.33%
3. COc1ccc(S(=O)(=O)c2cnc3cc(OC)c(OC)cc3c2NCc2ccc(F)cc2)cc1  -6.95%
4. COC(=O)C1=CN(C23CC4CC(CC(C4)C2)C3)C=C(C(=O)OC)C1c1ccsc1  -6.95%
5. O=C(O)CSc1ccc(Cl)c(Cl)c1  -6.71%
6. CC1(C)CC2=Nc3ccccc3NC(c3ccc(F)cc3)C2=C(O)C1 (centres unmarked)  -6.34%
7. CCN(C(=O)COc1ccc(Br)cc1Cl)c1ccccc1  -6.17%
8. CCOc1ccccc1NC(=O)c1ccccc1[N+](=O)[O-]  -6.12%
9. Fc1ccccc1N1CCN(C2CCCCCC2)CC1  -5.44%
10. CSc1ccc(C2C3=C(O)CCCC3=NC(C)=C2C(=O)N2CCOCC2)cc1 (centres unmarked)  -5.05%
11. Cc1cccc(-c2noc(CNC(=O)CCC3CCCC3)n2)c1  -4.82%
12. O=C(O)c1cc(S(=O)(=O)N2CCCCC2)ccc1O  -4.75%
13. N=C1SC2CS(=O)(=O)CC2N1CCc1ccccc1 (centres unmarked)  -4.75%
14. C=CCn1c(SCc2ccc(C)cc2)nc2c1c(=O)n(C)c(=O)n2C  -4.49%
15. Cc1nc2c(c(C)nn2C(C)(C)C)c(C)c1CCC(=O)NCCCc1ccccc1  -4.24%
16. COc1ccc(C)cc1N(CC(=O)Nc1ccccc1)S(=O)(=O)c1ccccc1  -4.13%
17. COc1ccc(CN2CCN(Cc3cc(OC)c(OC)c(OC)c3)CC2)cc1  -3.87%
18. CC(=O)c1ccc(NC(=O)CSc2nc3ccccc3s2)cc1  -3.77%
19. O=C(CSc1nnc(CNC(=O)c2cccs2)o1)NC1CCCCC1  -3.39%
20. CC1CCN(S(=O)(=O)c2ccc(F)c(C(=O)O)c2)CC1  -3.23%
21. CCc1ccc(OCC(=O)NCCC2=CCCCC2)cc1  -2.94%
22. COc1ccc(Cl)cc1NC(=O)c1cccc(C)c1  -2.6%
23. CC(C)C[C@H](NC(=O)c1ccnc(N2CCCCC2)c1)C(=O)NCC#N  -2.35%
24. COc1cc2nc(O)c3c(C)nc(C)c(C(=O)O)c3c2cc1OC  -1.85%
25. CCOCCOCCN1C(=O)c2ccccc2C1=O  -1.57%
26. CCc1ccccc1NC(=O)CN(c1ccc(Cl)cc1C)S(C)(=O)=O  -1.43%
27. Cc1ccc2[nH]c3c(c2c1)CCc1c[nH]nc1-3  -1.22%
28. CN(Cc1ccccc1)S(=O)(=O)c1ccc(Cl)nc1  -0.891%
29. O=C(Nc1ccc(-c2nc3cc(Cl)ccc3o2)cc1)c1cccc2ccccc12  -0.591%
30. COCCNC(=O)c1oc2c(c1C)-c1nn(Cc3ccc(Cl)cc3)cc1CC2  -0.326%
31. c1ccc2c(c1)CCN(c1ncnc3[nH]cnc13)C2  0.00626%
32. CCOc1c(Cl)cc(CNc2nc[nH]n2)cc1OC  0.032%
33. CC(=O)NS(=O)(=O)c1ccc(NC(=O)CCCOc2ccc(Cl)cc2Cl)cc1  0.177%
34. CCOC(=O)c1sc2nc(-c3cccs3)cc(C(F)(F)F)c2c1N  0.317%
35. CC(C)CCNC(=O)C1CCN(c2nc3ccccc3o2)CC1  0.387%
36. Oc1nnnc2c1cnn2-c1ccccc1  0.596%
37. Cc1nc2ccc(S(=O)(=O)NCC(=O)NCc3cccnc3)cc2s1  0.953%
38. CCOC(=O)C(C#N)c1nc2ccccc2nc1N1CCCCC1 (centres unmarked)  0.989%
39. Fc1ccc(-c2cn3nc(-c4ccccc4)n4c3c2CCCC4)cc1  1.03%
40. Cc1c(C(=O)NC(C)c2ccccc2)oc2ccc(S(=O)(=O)N3CCCCCC3)cc12 (centres unmarked)  1.07%
41. Cc1ccc(CNC(=O)c2cc3c(=O)oc4ccccc4c3s2)o1  1.08%
42. CCN(CC)CCNC(=O)C1CCCN(c2nnc(-n3cccc3)s2)C1 (centres unmarked)  1.15%
43. CC1CCCN(CCC(=O)c2ccc(Br)cc2)C1 (centres unmarked)  1.19%
44. O=C(c1ccc(Cl)cc1Cl)n1cnc2ccccc21  1.25%
45. Cc1ccc(S(=O)(=O)NCCNC(=O)CN2CCOCC2)cc1  1.25%
46. CN1CCN(C(=O)CN(Cc2ccccc2)S(C)(=O)=O)CC1  1.59%
47. CC[C@H](NC(=O)[C@H](CS(=O)(=O)Cc1ccccc1OC(F)F)NC1=NS(=O)(=O)c2ccccc21)C(=O)c1nc2ccccc2o1  1.61%
48. COc1cc2c(cc1OC)C(COc1ccc(F)cc1)N(C(=O)/C=C/c1ccc3c(c1)OCO3)CC2 (centres unmarked)  1.62%
49. CCCN1CCC(N2CCN(c3ccc([N+](=O)[O-])cc3)CC2)CC1  1.83%
50. COc1ccc(S(=O)(=O)Nc2ccccc2C)cc1  1.91%
51. COc1cc(CN2CCN(Cc3ccccc3C)CC2)cc(OC)c1  1.95%
52. Cc1cccc(-c2noc(CN(C(=O)c3cccs3)C3CCCCC3)n2)c1  2.14%
53. COc1ccc(-c2cc(OC(=O)c3ccccc3C)c3c(C)oc(C)c3c(=O)c2)cc1OC  2.21%
54. Cc1nn(CC(=O)Nc2ccc(F)c(Cl)c2)c(C)c1Br  2.82%
55. Clc1ccc(C2=Nn3c(nnc3-c3ccc4c(c3)OCO4)SC2)cc1Cl  3.38%
56. CCOc1ncccc1C(=O)Nc1sc(C)c(C)c1C(=O)OC  3.67%
57. O=C(NC1CCSC1=O)c1ccccc1Br (centres unmarked)  3.85%
58. Cc1ccc(OCC(=O)Nc2ccc(N3CCN(C)CC3)cc2)cc1  4.57%
59. Cc1ccc(-c2cn3nc(N4CCCC(C(=O)N5CCCCCC5)C4)sc3n2)cc1 (centres unmarked)  5.11%
60. CC1CCN(S(=O)(=O)c2ccc(C(=O)OCC(=O)c3ccc(Br)cc3)cc2)CC1  5.38%
61. CC(=O)c1ccc(S(=O)(=O)NCc2csc(C)n2)cc1  5.65%
62. O=C1CCSC2(C(=O)Nc3ccccc32)N1c1ccc(Br)cc1 (centres unmarked)  6.17%
63. COC(=O)c1nnn(-c2cccc(C)c2)c1O  6.31%
64. CC(C)(C)c1ccc(-c2nnc3sc(-c4ccccc4F)nn23)cc1  9.4%
65. CO/C(O)=C1\C(C)=NC(=S)NC1c1cccc(OC)c1OC (centres unmarked)  17%
